# Test results taken from PubChem BioAssay AID602310 (National Center for Advancing Translational Sciences (NCATS), 2012).
# Hit rate of the full screen: of about 410,000 compounds, about 310 (0.076%) were called active. The inconclusive results got no clear call from the source; some entries with a clear call stand among them for comparison. The call rests on the fitted dose curve; in most records, active means well fitted curve in the direction sought with a large enough effect; inconclusive means small, poorly fitted or top-dose-only effect; inactive means flat fitted curve, though single readings scatter. Potencies of inconclusive entries are doubtful fits and often do not repeat.
# Target: DNA dC->dU-editing enzyme APOBEC-3G (Homo sapiens) (UniProt Q9HC16)
# Test: qHTS for Inhibitors of Vif-A3G Interactions: qHTS; further: nearly all actives have a fitted effect of over 60% in size;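 on activity, negative = active: hits raise eYFP signal because A3G escapes Vif-driven loss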
# Conditions: HeLa A3G-eYFP + Vif (tagged APOBEC3G with the HIV-1 protein that degrades it), YFP fluorescence, overnight; series mostly up to 46.1 µM; activity, negative = active: at the top concentration
# Outline: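 HeLa cells stably expressing Vif and C-terminally eYFP-tagged A3G, seeded overnight at 37 deg C, then exposed to compound by pintool overnight at 37 deg C. Rise in yellow fluorescence (Ex 488/Em 500-530, Acumen) marks blocked Vif-driven A3G degradation.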
# On the % scale 0 is the no-effect control and ±100 the full control effect; potency means the concentration at half of the fitted maximal effect; tags describe the fitted curve by direction and shape.
# Chain of UniProt Q9HC16 (Q9HC16 whole entry, looked up): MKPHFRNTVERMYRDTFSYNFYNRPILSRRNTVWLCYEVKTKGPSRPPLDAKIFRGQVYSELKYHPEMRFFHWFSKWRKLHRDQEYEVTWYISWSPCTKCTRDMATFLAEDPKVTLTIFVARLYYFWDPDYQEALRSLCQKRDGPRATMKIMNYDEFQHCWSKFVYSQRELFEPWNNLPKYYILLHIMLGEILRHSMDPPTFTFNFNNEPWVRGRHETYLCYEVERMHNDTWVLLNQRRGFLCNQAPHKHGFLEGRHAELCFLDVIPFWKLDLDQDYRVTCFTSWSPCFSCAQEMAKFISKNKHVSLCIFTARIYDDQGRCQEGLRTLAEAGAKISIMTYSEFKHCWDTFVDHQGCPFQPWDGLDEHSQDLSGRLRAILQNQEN
SMILES,Potency,"activity, negative = active"
O=C(O)c1cccc(Cn2c(Cl)c(/C=N/NC(=O)c3cc4ccccc4cc3O)sc2=O)c1,"inconclusive: 35.5 µM [inhibitor, single point]",
CCN(CC)c1ccc(NC(=O)c2ccc(=O)[nH]c2)cc1S(=O)(=O)Nc1ccccc1OC,"inconclusive: 7.94 µM [inhibitor, partial curve]",
c1ccc(C(=NNc2nc3ccccc3s2)c2ccccn2)cc1,"inconclusive: 15.8 µM [inhibitor, single point]",
CCC(c1ccc(O)c(O)c1)C(CC)c1ccc(O)c(O)c1 (stereo not drawn),"inconclusive: 25.1 µM [inhibitor, single point]",
O=C(CCl)N=c1sccn1Cc1ccccc1Cl,,inactive: -20.6%
CCCCCN1C=CC=C/C1=C\C=C(C#N)C#N,"inconclusive: 12.6 µM [inhibitor, partial curve, poor fit]",
CCn1c(CNC(=O)c2ccc(Cl)cc2)nnc1SCC(=O)N1CCOCC1,,inactive: -13.2%
COc1cc(OC)cc(C(=O)NNC(=O)c2cc(S(=O)(=O)N3CCOCC3)ccc2F)c1,"inconclusive: 10 µM [inhibitor, partial curve, poor fit]",
Cc1ccc(S(=O)(=O)Nc2ccc(-c3nc4ccc(C)cc4s3)cc2)cc1,"inconclusive: 35.5 µM [inhibitor, single point]",
COc1c(/C=N/Nc2nc(N3CCCCC3)nc(N3CCCCC3)n2)cccc1[N+](=O)[O-],,inactive: -0.512%
Cc1cc(C)c(NC(=O)Cn2c(=O)n(Cc3ccc(C(=O)NCc4ccco4)cc3)c(=O)c3sccc32)c(C)c1,active: 8.91 µM,
CCOc1ccccc1NC(=O)Cn1nnc(C(=O)NCc2ccc3c(c2)OCO3)c1N,"inconclusive: 6.31 µM [inhibitor, full curve]",
O=C(N/N=C/c1ccc([N+](=O)[O-])o1)c1cc(-c2ccncc2)nc2ccccc12,"inconclusive: 3.16 µM [inhibitor, full curve]",
Oc1ccc(C[C@H]2CNCCN2CC2(c3ccccc3)CC2)cc1,,inactive: 1.22%
Cc1ccc(C)c(Cn2c(=O)n(CCCC(=O)NCc3ccc4c(c3)OCO4)c(=O)c3sccc32)c1,"inconclusive: 10 µM [inhibitor, partial curve]",
O=C(NCc1cccnc1)c1cccc(NS(=O)(=O)c2ccc(Br)cc2)c1,"inconclusive: 1.58 µM [inhibitor, full curve, poor fit]",
COc1cc(/C=C(/C#N)c2nc3ccccc3[nH]2)ccc1Oc1ncccc1[N+](=O)[O-],"inconclusive: 22.4 µM [inhibitor, single point]",
O=C(Nc1ccc(Oc2ccccc2)nc1)C1CCCCN1Cc1ccco1 (stereo not drawn),"inconclusive: 5.62 µM [inhibitor, full curve, poor fit]",
